Measured values as given in PubChem BioAssay AID1963576 (National Center for Advancing Translational Sciences (NCATS), 2024).
The campaign covered roughly 46,000 compounds. About 60 (0.1%) were called active. Roughly 3% stayed inconclusive and do not appear here. Calls follow the shape of the dose curve; as a rule, active = well fitted inhibition curve with a large enough effect; inconclusive = small, poorly fitted or top-dose-only effect; inactive = no such curve, though single readings can be large or run the other way. The list shows a part of the results.

Assay: Primary qHTS assay for Inhibitors of ovarian cancer metastasis using an organotypic tumor microenvironment (TME) model. Also: nearly all actives have a fitted effect of over 65% in size.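 As to activity change, negative = inhibition: plate controls were DMSO wells for no effect and tomatine positive control wells for full effect.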
Conditions: SKOV3ip1-GFP adhesion/invasion on 3D omental model, fluorescence; series mostly up to 45.8 µM; activity change, negative = inhibition: at the top concentration
In short: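 Primary human omental fibroblast/mesothelial 3D culture pre-formed 48 h. SKOV3ip1-GFP cells added with compounds (0.36-46 umol/L), incubated 2 h RT/16 h 37 C, fixed; GFP cells quantified at 488/509 nm.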

Activity change, negative = inhibition, inactive:
COC(=O)c1cc(NS(=O)(=O)c2ccc3c(c2)OCCO3)ccc1Cl 9.02%, Cc1cccn2c(=O)c(C(=O)N3CCN(c4ccccc4F)CC3)cnc12 -5.57%, CCCCN(C)CCNC(=O)c1nn(-c2ccc(OC)c(Cl)c2)c(=O)c2c1c1ccccc1n2C 7.31%, Cc1cc(C)c(S(=O)(=O)NCc2ccc3c(c2)CCN3C(=O)c2ccccc2)c(C)c1 -0.0548%, CCN(CC)c1ccc2cc(-c3nnc(Nc4ccc(C)cc4)s3)c(=O)oc2c1 -16.2%, COc1ccc2c(C)c(CCC(=O)NCCc3ccccc3)c(=O)oc2c1 -8.84%, COC(=O)C1=C(CS(=O)(=O)c2ccc(C)cc2C)NC(=O)NC1c1ccc(C)cc1 (configuration not stated) -18.3%, Cc1cc2c(cc1S(=O)(=O)N(CCN(C)C)Cc1ccccc1)OCC(=O)N2 10.7%, COc1ccccc1C(c1c(O)cc(C)n(Cc2ccco2)c1=O)N1CCCCC1 (configuration not stated) -28.2%, CCC(Oc1ccccc1F)C(=O)Nc1cc(-c2ccccc2)no1 (configuration not stated) 1.43%, COc1ccc(S(=O)(=O)N(CC(=O)NCCSc2ccc(C)cc2)c2ccc(C)cc2)cc1 6.01%, CCOc1ccccc1NC(=O)CSc1c2c(nc3ccc(Cl)cc13)CCCC2 6.35%, Cc1nc2c(c(C)c1CCC(=O)NCc1ccc(F)cc1)c(=O)n(C)c(=O)n2C -3.56%, CC(=O)N1CCC(N(Cc2ccc(C)o2)C(=O)Nc2ccccc2F)CC1 -13.2%, COc1cccc(-c2nc(-c3ccc(Br)o3)no2)c1 -8.23%, Cc1[nH]c2ccc(C(=O)NCCCN3CCCCC3)cc2c1C 9.98%, CCOC(=O)c1cc(OC(=O)c2ccccc2F)n(-c2ccccc2)n1 -2.33%, O=C(NCc1ccccc1)c1cc(Sc2cccc(Cl)c2)nc2ccccc12 -13.6%, CC(=O)N1c2ccccc2C(=O)C1N1CCN(c2ccc(Cl)cc2)CC1 (configuration not stated) -2.41%, COc1ccc(NCc2cc3cc4c(cc3n(CC(=O)Nc3ccc(C)cc3C)c2=O)OCO4)cc1 -13.5%, CCOc1ccccc1NC(=O)Cn1nnc(C(=O)NCc2cccs2)c1N 5.68%, CC1=C(c2ccc(C(C)C)cc2)S(=O)(=O)N=C1N1CCN(c2ccccc2F)CC1 -0.279%, Cc1ccccc1Nc1nn2c(=O)c3ccc(C(=O)NCC(C)c4ccccc4)cc3nc2s1 (configuration not stated) -4.9%, Cc1ccc(-c2nc(S(=O)(=O)c3ccc(F)cc3)c(N3CCN(c4ccccc4)CC3)o2)cc1 4.92%, Nc1nc2c(ncn2COCCO)c(=O)[nH]1 -4.73%, CCOC(=O)c1cccnc1SCC(=O)N(CC)c1cccc(C)c1 3.98%, Cc1ccc(C)c(N2CCN(C(=O)CCc3nnc4n(C)c(=O)c5ccccc5n34)CC2)c1 8.6%, CN1CCN(C(CNC(=O)C(=O)Nc2ccc(Cl)cc2)c2cccnc2)CC1 (configuration not stated) 20.8%, CCOCCCNC(=O)c1c[nH]c2ccc(S(=O)(=O)N(C)c3ccc(Cl)cc3F)cc2c1=O -9.06%, NC(=O)c1nc(Nc2ccccc2)sc1NC(=O)c1c(F)cccc1F 7.87%, CCOC(=O)c1ccc(NC(=O)c2c(NCc3sccc3C)sc3c2CCC(C)C3)cc1 (configuration not stated) -2.61%, CCc1ccccc1NC(=O)c1oc(=O)c2ccccc2c1-c1ccccc1 5.13%, CC(C)Cn1nc(NC(=O)c2cccc(Cl)c2)c2cc3ccccc3nc21 -10.9%, COc1ccc(F)cc1S(=O)(=O)NCC(c1ccco1)S(=O)(=O)c1cccs1 (configuration not stated) 8.75%, COc1cccc(NC(=O)CSc2nc(=O)n(Cc3cccnc3)c3c2CCC3)c1 -2.02%, Cc1cccc2c(=O)cc(CSc3ccccc3NC(=O)C(C)C)[nH]c12 1.48%, Cc1ccc2nc3c(cc(C#N)c(=O)n3-c3nnc(SCc4ccc(F)cc4)s3)c(=O)n2c1 -1.59%, CCCCOc1cccc(C(=O)Nc2sc3c(c2C(=O)OCC)CCCC3)c1 0.841%, CCOc1ccc(-n2c(SCc3ccccc3)nc3c([nH]c4ccccc43)c2=O)cc1 38.1%, CCOc1ccc(CNC(=O)c2ccc3c(c2)c(C)c(C)n3C)cc1 -9.99%, COc1cccc(CNC(=O)N2CCc3c(sc4c3CCCC4)C2c2ccc(F)cc2)c1 (configuration not stated) -14.4%, Cc1nc2ncnn2c(C)c1CCC(=O)N1CCN(c2ccc(F)cc2)CC1 -8.56%, CC(C)c1ccc2c(c1)NC(c1ccc(F)cc1)=NC(c1cccs1)=N2 0.287%

outcome, inactive:
COc1ccc(C(=O)Nc2nnc(SCc3cc(=O)c4cc(C)ccc4[nH]3)s2)cc1OC, COc1ccc(CNC(=O)Cn2c(=O)c3cccn3c3cccnc32)cc1, Cc1nn(-c2ccccc2)c2sc(C(=O)Nc3ccc(Cl)cc3Cl)cc12, COc1ccc(C(=O)NCCn2cc(SCC(=O)Nc3ccc4c(c3)OCCO4)c3ccccc32)cc1, Cc1cccc(N2CCN(S(=O)(=O)c3cc(C(=O)Nc4ccc(Oc5ccccc5)cc4)ccc3F)CC2C)c1 (configuration not stated), CCOc1ccccc1NC(=O)c1nc(S(=O)(=O)Cc2cccc(C)c2)ncc1Cl, CCOC(=O)C1CCCN(S(=O)(=O)c2cc(-c3onc(C)c3C)ccc2OC)C1 (configuration not stated), CCc1c(-c2ccccc2)nc2ccccc2c1C(=O)NC(C)c1ccccc1 (configuration not stated), CCCN(c1ccccc1F)S(=O)(=O)c1ccc2c(c1)C(C)(C)C(=O)N2C, COc1ccc(-c2noc(CNC(=O)c3cc(OC)c(OC)c(OC)c3)n2)cc1, CC1CCc2onc(C(=O)Nc3ccc(Cl)cc3)c2C1 (configuration not stated), CCOc1c(Br)cc(C2C=C(C(=O)O)Nc3ncnn32)cc1OC (configuration not stated), CC(C)C[C@H](N)c1nnc(SCc2ccc(Cl)cc2Cl)o1, CC(C)(C)c1ccc(OCC(=O)Nc2ccc(C(=O)OC3CCCCC3)cc2)cc1, CCCN(CCC)C(=O)Cn1c(=O)n(-c2ccc(OC)cc2OC)c(=O)c2c3c(sc21)CCC3, COc1ccc(CCNC(=O)CCCCn2c(=O)c3ccccc3n(Cc3cc(C)ccc3C)c2=O)cc1OC, Cc1ccc(Sc2ccc(N3CCCC(C(=O)Nc4ccc(F)c(Cl)c4)C3)nn2)cc1 (configuration not stated), CCOc1ccccc1NC(=O)Cn1c(=O)n(CC(=O)NCc2ccccc2Cl)c(=O)c2sccc21, Cc1cccc(C(=O)NCCc2nc3ccccc3n2Cc2ccccc2Cl)c1
